Assay results taken from ChEMBL document CHEMBL1201862, “PubChem BioAssay data set” (2004).

What follows are compounds tested on NCI-H322M (assay: growth of human tumour cells (NCI), 48 h).
`O=[N+]([O-])c1ccc(-c2nc3cc([N+](=O)[O-])ccc3[nH]2)cc1` was tested, and the GI50 was inactive: 31.8 µM.
With `O=C(O)c1ccccc1C1c2ccccc2Oc2ccccc21` the GI50 was inactive: > 100 µM.
`C=C1CC(COc2ccc3c(C)c(Cl)c(=O)oc3c2)(c2ccccc2)OC1=O` (stereo unspecified) was tested, and the GI50 was inactive: 4.11 µM.
With `O=C(O)/C(Cc1ccnc2ccccc12)=N\O` the GI50 was inactive: > 100 µM.
For `CC1=C(C(=O)Nc2ccc(Cl)c(C(=O)OC(C)C)c2)SCCO1`, the GI50 was inactive: 74.1 µM.
In the case of `Cc1cn2c(/C=N/NC(=N)N)c(-c3ccc(Cl)c([N+](=O)[O-])c3)nc2s1`, the GI50 was inactive: 1.63 µM.
`CCO/C(Cc1ccc(Cl)cc1)=N/NC(N)=S` was tested, and the GI50 was inactive: > 100 µM.
With `CN(C)CCCN1CCc2c([nH]c3ccccc23)C1c1cccnc1` (stereo unspecified) the GI50 was inactive: > 100 µM.
`O=C(O)C(Cc1ccccc1)NCc1c(O)ccc2c(-c3ccccc3)cc(=O)oc12` (stereo unspecified) was tested, and the GI50 was inactive: > 100 µM.
With `CC(C)(C)C1(O)Cc2ccccc2C(=O)O1` (stereo unspecified) the GI50 was inactive: > 100 µM.
`O=[N+]([O-])c1cccnc1NCC1(CO)CC(Cc2ccccc2)C1` (stereo unspecified) was tested, and the GI50 was inactive: 67 µM.
With `SC1CCCN(Cc2ccccc2)C1` (stereo unspecified) the GI50 was inactive: > 100 µM.
In the case of `C=CCN(CC=C)Cn1c(=S)sc2ccccc21`, the GI50 was inactive: > 100 µM.
`C=CCN1/C(=C(\C#N)c2nc3ccccc3[nH]2)Sc2c1nc[nH]c2=O` was tested, and the GI50 was inactive: > 100 µM.
With `C1CN2N3CCCC23C1` (stereo unspecified) the GI50 was inactive: > 100 µM.
In the case of `CCCCCCCCCCCC(=O)OC[C@@H](C[As](=O)(O)O)OC(=O)CCCCCCCCCCC`, the GI50 was inactive: 9.2 µM.
For `CCOC(=O)c1cc(C(O)P2(=O)N(CC(C)(C)C)[C@@H]3CCCC[C@H]3N2CC(C)(C)C)cn1C(=O)OC(C)(C)C` (stereo partly specified), the GI50 was inactive: 19.9 µM.
`Cc1cc2oc3c(ccc(=O)n3C)c(=O)c2c(C)c1Cl` was tested, and the GI50 was inactive: 65.2 µM.
`N#CCCN(c1ccc(/C=C2\N=C(c3ccc(Cl)cc3)OC2=O)cc1)S(=O)(=O)c1ccccc1` was tested, and the GI50 was inactive: > 100 µM.
With `CC1=NN(c2ccccc2)C(=O)/C1=C1\SC(c2ccccc2)(c2ccccc2)c2ccccc21` the GI50 was inactive: > 100 µM.
`CC1(C)OC2C(CO)OC(n3cnc(N)nc3=O)C2O1` (stereo unspecified) was tested, and the GI50 was inactive: > 100 µM.
With `C1CCCN(NC2=NCCO2)CC1` the GI50 was inactive: > 100 µM.
With `Cc1ccc(C)c(/C(=N\N=C(N)N)C2CC2)c1` the GI50 was inactive: 30.1 µM.
With `CN1CCC(OC(=O)Oc2ccccc2)(c2ccccc2)CC1` the GI50 was inactive: 15.2 µM.
In the case of `Brc1ccc(/N=C/C=C(\Nc2ccc(Br)cc2)C23CC4CC(CC(C4)C2)C3)cc1`, the GI50 was inactive: > 55.5 µM.
With `CCCCCCOc1ccc(C(=O)NOC)cc1` the GI50 was inactive: > 100 µM.
In the case of `CCOC(=O)C1OC(C2(C)OC3(OC4(C=CC3O)OC(C(C)C(=O)C(C)C(O)C(C)CC(C)c3c(Cl)cc(C)c(O)c3C(=O)O)C(C)CC4C)C(C)C2OC)CC1O` (stereo unspecified), the GI50 was active: 0.964 µM.
With `Cn1cc(C(=O)/C(Cl)=C(\Cl)C(=O)O)c2ccccc21` the GI50 was inactive: > 100 µM.
With `c1ccc(NN/N=N/c2ccc(-c3nc4ccccc4[nH]3)cc2)cc1` the GI50 was inactive: 41.9 µM.
With `N#CC1=C(N)C(C#N)(C#N)C(c2ccc(F)cc2)C=C1C1CC1` (stereo unspecified) the GI50 was inactive: 8.93 µM.
In the case of `C/C(=C\C(=O)Nc1ccc2[nH]nnc2c1)Nc1ccc2[nH]nnc2c1`, the GI50 was inactive: > 100 µM.
For `C=CC(OC(=O)C(C)C)c1ccc(OC(=O)C(C)C)cc1` (stereo unspecified), the GI50 was inactive: 2.62 µM.
`CC(=O)C1C(=O)C(=O)N(c2ccc(Cl)cc2C)C1=O` (stereo unspecified) was tested, and the GI50 was inactive: > 100 µM.
For `COc1cc([C@@]23OC[C@@H]4[C@@H](OC[C@@H]42)c2cc4c(cc23)OCO4)cc(OC)c1OC`, the GI50 was active: < 0.01 µM.
In the case of `CC(=O)c1cccc(NC(=O)C(=O)C(C(=O)NN)c2ccccc2)c1` (stereo unspecified), the GI50 was inactive: > 100 µM.
`OCC1OC(n2ccc3cnccc32)CC1O` (stereo unspecified) was tested, and the GI50 was inactive: > 100 µM.
With `O=C(c1nc2ccc(Cl)cc2nc1O)C(O)c1ccccc1` (stereo unspecified) the GI50 was inactive: > 100 µM.
In the case of `NC(=O)c1ccccc1NC(=O)C(=O)C(c1cnc2ccc([N+](=O)[O-])cc2n1)[N+](=O)[O-]` (stereo unspecified), the GI50 was inactive: 76.9 µM.
`CC(C)(C)c1ccc2c(c1)OP1(Oc3c(Cl)cc(Cl)c4cccnc34)(O2)Oc2ccc(C(C)(C)C)cc2O1` was tested, and the GI50 was inactive: 11.9 µM.
With `COc1ccc(N2C(=O)C3c4[nH]c5ccc(Br)cc5c4C4CCC(C(C)(C)C)CC4C3C2=O)cc1` (stereo unspecified) the GI50 was inactive: > 100 µM.
For `CN1C(=O)NC(=O)/C(=C\Nc2ncccn2)C1=O`, the GI50 was inactive: > 100 µM.
For `O=C(O)/C(Cl)=C(\Cl)C(=O)c1ccccc1`, the GI50 was inactive: > 100 µM.
For `COC(=O)CC(=O)OC`, the GI50 was inactive: > 100 µM.
In the case of `[O-][S+]1c2ccccc2NC(c2ccc3ccccc3c2)CC1c1ccccc1` (stereo unspecified), the GI50 was inactive: 35.2 µM.
For `CC(C)(C)OC/C=C(/CO)[C@@H]1C=C[C@H](O)C1`, the GI50 was inactive: > 100 µM.
In the case of `CCOC(=O)/C(C#N)=C\c1ccc(N(CCC(=O)O)CCC(=O)O)c(I)c1`, the GI50 was inactive: > 10 µM.

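The compound was tested at five concentrations on cells cultured in 96-well plates, with a 48-hour exposure period. The concentration for 50% growth inhibition is given as GI50.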 Calls of active or inactive are those of the source. No stated cut-off is given here; in the data, active = GI50 up to about 1.1 µM and inactive = higher.
